For this test, the system named is L1210 leukemia ip in BDF1 mice, survival T/C. Description: NCI In Vivo Anticancer Drug Screen. Data for tumor model L1210 Leukemia (intraperitoneal) in B6D2F1 (BDF1) mice. The settings on record: endpoint: mean survival time, higher = longer survival.

Here are results for 13 molecules from PubChem BioAssay AID248 (DTP/NCI, 2004).

Inconclusive results and toxic doses are left out. Certain results were filed several times, with different values. This list holds those alone. The source may hold further records. The records of an entry repeat one measurement across runs, samples, wells, individuals or studies. Marks in square brackets tell the records apart. Letters hold for one entry only.

Regarding `CCSc1nc(Cl)cc(Sc2nc(N)nc3nc[nH]c23)n1`, the T/C (dose: 150.0 mg/kg/injection, schedule: Q01DX001 (ip), vehicle: saline) is 119 % of control and 163 % of control.

Turning to `O=C1CN(C(=O)CN2C(=O)c3ccccc3C2=O)C2(CCCCC2)O1`, the T/C (dose: 100.0 mg/kg/injection, schedule: Q04DX003 (ip), vehicle: saline sonified) was 94 % of control and 173 % of control.

Regarding `CC[n+]1ccccc1-c1ccc(NC(=O)c2ccc(C(=O)Nc3ccc(-c4ccccn4)cc3)cc2)cc1`, for the setting “dose: 10.0 mg/kg/injection, schedule: Q01DX001 (ip), vehicle: saline”, the T/C is 124 % of control and 155 % of control.

In the case of `CC1CN1P(=O)(OCCC#N)N1CC1C` (centres undefined), the T/C (dose: 200.0 mg/kg/injection, schedule: Q04DX003 (ip), vehicle: acetone) is 123 % of control and 156 % of control.

For `CS(=O)(=O)OCOS(C)(=O)=O`, the T/C (dose: 50.0 mg/kg/injection, schedule: Q01DX009 (ip), vehicle: saline) is 100 % of control and 156 % of control.

As for `CC(CN1CC(=O)NC(=O)C1)N1CC(=O)NC(=O)C1.[Cl-].[Pt+4]` (centres undefined), for the setting “dose: 12.5 mg/kg/injection, schedule: Q01DX009 (ip), vehicle: saline”, the T/C is 115 % of control and 152 % of control.

Take `C[n+]1ccc(Nc2ccc(NC(=O)c3ccc(Nc4cc[n+](C)c5ccc([N+](=O)[O-])cc45)cc3[N+](=O)[O-])cc2)cc1`: for the setting “dose: 100.0 mg/kg/injection, schedule: Q04DX003 (ip), vehicle: suspension in saline”, the T/C was 123 % of control and 150 % of control.

For the molecule `O=C(OCC1OC(n2c(=O)[nH]cc(F)c2=O)C(OC(=O)c2ccccc2)C1OC(=O)c1ccccc1)c1ccccc1` (centres undefined), the T/C (dose: 40.0 mg/kg/injection, schedule: Q01DX005 (ip), vehicle: Klucel (hydroxypropylcellulose) (HPC)) was 121 % of control and 173 % of control.

Turning to `CC(=N\N=C(N)N)/C(N=Nc1ccc(S(N)(=O)=O)cc1)=N\N=C(N)N`, the T/C (dose: 240.0 mg/kg/injection, schedule: Q01DX Z (oral), vehicle: carboxymethylcellulose (CMC)) is 102 % of control and 157 % of control.

As for `C[OH+]c1ccccc1C(=O)O.C[OH+]c1ccccc1C(=O)O.[Ni]`, the T/C (dose: 100.0 mg/kg/injection, schedule: Q04DX002 (ip), vehicle: saline with Tween-80) is 101 % of control, 103 % of control, 174 % of control.

As to `CN(N=O)C(=O)NC(C=O)C(O)C(O)C(O)CO` (centres undefined), the T/C runs as follows: (dose: 13.0 mg/kg/injection, schedule: Q#A X Z (ip), vehicle: saline) 120 % of control and 164 % of control; (dose: 100.0 mg/kg/injection, schedule: Q01DX Z (ip), vehicle: saline) 92 % of control, 106 % of control, 155 % of control.

For `O=NN(CCF)C(=O)NC1CCS(=O)(=O)CC1`, where the note is “dose: 8.0 mg/kg/injection, schedule: Q## X032 (ip), vehicle: other”, the T/C was 123 % of control and 371 % of control.

In the case of `Nc1nc(=S)c2ncn(C3CC(O)C(CO)O3)c2[nH]1` (centres undefined), the T/C (dose: 25.0 mg/kg/injection, schedule: Q01DX005 (ip), vehicle: saline) was 114 % of control [sample A] and 159 % of control [sample B].
